Results from the RNAGym collection of RNA variant scans (doi:10.1093/nar/gkz1192).
The source gives no read counts; variants with many changes may rest on few reads.

B1: CPEB3 Ribozyme (parent)
chain: UAACAGGGGGCCACAGCAGAAGCGUUCACGUCGCAGCCCCUGUCAGAUUCUGGUGAAUCUGCGAAUUCUGCUGUAUAUCUC

Variants of: B1
Assay: self-cleavage, relative activity (ratio to wild type); higher = more cleavage; in vitro, sequencing
Outline: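 Relative activity compares each variant's cleaved/total read fraction with that of the unmutated ribozyme. To get these fractions, barcoded CPEB3 ribozyme libraries from rounds of error-prone PCR were transcribed with T7 RNA polymerase for 5 hours at 37°C and then given 15 min of DNase I treatment before EDTA was added. The RNAs were reverse transcribed with template switching and sequenced on Illumina, and DNA sequencing linked barcodes to variants. A minimum of 5 reads applied, and three batches were averaged.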
With A15G U41C G52C the self-cleavage was 0.85. Work on A15G U41C G55A U66A yielded a self-cleavage of 0.2. A15G U41C U43A A64G U69C showed a self-cleavage of 0.1. With A15G U41C U43C A45G the self-cleavage was 0.14. Work on A15G U41C U48C U78C yielded a self-cleavage of 0.62. A15G U41C U49C gave a self-cleavage of 0.24. A15G U41C U49C C79A showed a self-cleavage of 0.2. With A15G U41C U49C U69A the self-cleavage was 0.14. For A15G U41C U51C U72C, the self-cleavage was 1.16. For A15G U41C U58C, the self-cleavage was 0.26. A15G U41C U58C C62U A64U A75G showed a self-cleavage of 0.14. Variant A15G U41C U58C U60A has a self-cleavage of 0.23. A15G U41C U58C U78A gave a self-cleavage of 0.24. Variant A15G U41G A57G U80C has a self-cleavage of 0.39. In the case of A15G U41G U43A, the self-cleavage is reported as 0.49. A15G U41G U48C U78C showed a self-cleavage of 0.14. Work on A15G U41G U51C U72A U80C yielded a self-cleavage of 0.21. Work on A15G U41G U54C A64U yielded a self-cleavage of 0.06. In the case of A15G U43A A65G, the self-cleavage is reported as 0.36. Variant A15G U43A A65G U72A U80A has a self-cleavage of 0.36. Variant A15G U43A C62U U66C A75G U80C has a self-cleavage of 0.22. With A15G U43A U60C the self-cleavage was 0.28. Variant A15G U43A U60C U72C U78C has a self-cleavage of 0.75. A15G U43C A45G G63U U78C showed a self-cleavage of 0.44. Variant A15G U43C A45U C59U U78C has a self-cleavage of 0.08. Work on A15G U43C C44U U69C yielded a self-cleavage of 0.08. A15G U43C G46A A56G U67C showed a self-cleavage of 0.13. A15G U43C G61A showed a self-cleavage of 0.14. In the case of A15G U43C G70C, the self-cleavage is reported as 0.14. In the case of A15G U43C U66A U67C, the self-cleavage is reported as 0.16. Variant A15G U43C U66C U78C has a self-cleavage of 0.14. For A15G U43G U69C G70A, the self-cleavage was 0.09. A15G U48A U60A U80G gave a self-cleavage of 0.12. For A15G U48C A56G, the self-cleavage was 0.19. A15G U48C A56G U80A gave a self-cleavage of 0.12. With A15G U48C G61U the self-cleavage was 0.16. A15G U48C U54A A64G A75U showed a self-cleavage of 0.18. Variant A15G U48C U66C has a self-cleavage of 0.34. For A15G U48C U78C, the self-cleavage was 0.47. A15G U48C U80A showed a self-cleavage of 0.58. A15G U49A U67A gave a self-cleavage of 0.3. Variant A15G U49C A57U A64G has a self-cleavage of 0.07. A15G U49C A57U G61A showed a self-cleavage of 0.08. A15G U49C U51A G73C showed a self-cleavage of 0.67. A15G U49C U58C U78A showed a self-cleavage of 0.06. In the case of A15G U49G A56U U80A, the self-cleavage is reported as 0.94. With A15G U51A C59U U69C the self-cleavage was 0.24. A15G U51A U58A showed a self-cleavage of 0.3. A15G U51A U60C gave a self-cleavage of 0.42. Variant A15G U51A U76C has a self-cleavage of 0.49. With A15G U51C A64G U78C the self-cleavage was 0.5. Work on A15G U51C A65G U66C yielded a self-cleavage of 0.45. A15G U51C C62U U66C gave a self-cleavage of 0.34. For A15G U51C U54A A64G, the self-cleavage was 0.28. Variant A15G U51C U67A U69C has a self-cleavage of 0.16. Variant A15G U51C U72A has a self-cleavage of 0.29. A15G U51C U76C showed a self-cleavage of 0.73. Work on A15G U51G A57U yielded a self-cleavage of 0.42. With A15G U54A A56C U80C the self-cleavage was 0.53. A15G U54A A57U showed a self-cleavage of 0.35. With A15G U54A A64U the self-cleavage was 0.32. For A15G U54A C68A, the self-cleavage was 0.16. A15G U54A U66A gave a self-cleavage of 0.43. With A15G U54A U80A the self-cleavage was 1.15. For A15G U54C U60A, the self-cleavage was 0.25. Variant A15G U54C U66G has a self-cleavage of 0.77. With A15G U54C U67A the self-cleavage was 0.4. Variant A15G U54C U72A has a self-cleavage of 0.44. In the case of A15G U54C U72C, the self-cleavage is reported as 1.29. A15G U54C U76A gave a self-cleavage of 0.36. For A15G U54G A56G C68A A75G, the self-cleavage was 0.1. With A15G U58A U67C the self-cleavage was 0.16. Variant A15G U58C A64G has a self-cleavage of 0.27. A15G U58C U60A showed a self-cleavage of 0.14. In the case of A15G U58C U72C, the self-cleavage is reported as 0.63. A15G U60A A64G gave a self-cleavage of 0.64. With A15G U60A U67C U72C the self-cleavage was 0.6. A15G U60C A77G U80C showed a self-cleavage of 0.35. Work on A15G U60C G73C yielded a self-cleavage of 0.52. A15G U60C U78C showed a self-cleavage of 0.39. Variant A15G U60G C68A A77U U80C has a self-cleavage of 0.23. With A15G U66C U67C the self-cleavage was 0.33. Work on A15G U67C C81A yielded a self-cleavage of 0.3. With A15G U67C U72A the self-cleavage was 0.3. A15G U67C U74C gave a self-cleavage of 0.18. Work on A15G U69A A75G yielded a self-cleavage of 0.15. A15G U69A U72A gave a self-cleavage of 0.19. Work on A15G U69C U78C yielded a self-cleavage of 0.2. A15G U72C U76C showed a self-cleavage of 1.22. With A15G U72C U78C the self-cleavage was 1.19. For A15G U74C A75G, the self-cleavage was 1.05. With A15G U74C U78C the self-cleavage was 1.03. Work on A15U A18G A20G A28U A45G U60C U78A yielded a self-cleavage of 0.08. Variant A15U A18G A20G U41A A56G U60A has a self-cleavage of 0.03. A15U A18G A20U U31A U78C showed a self-cleavage of 0.05. Variant A15U A18G A21G U31A U41C has a self-cleavage of 0.24. A15U A18G A28U U60C U66C showed a self-cleavage of 0.09. For A15U A18G A45G, the self-cleavage was 0.08. In the case of A15U A18G A47U G53A C71A U80A, the self-cleavage is reported as 0.03. In the case of A15U A18G A56G U69C, the self-cleavage is reported as 0.56. For A15U A18G A64U U67A, the self-cleavage was 0.12. For A15U A18G C50G U72C, the self-cleavage was 0.15. Work on A15U A18G C68U yielded a self-cleavage of 0.28. Variant A15U A18G G19C G52U U69C U72C has a self-cleavage of 0.13. Variant A15U A18G U26C A28C U31C has a self-cleavage of 0.37. A15U A18G U26C A57G gave a self-cleavage of 0.2. Variant A15U A18G U31G U58C U67C has a self-cleavage of 0.09. With A15U A18G U41C A47G A57G U66A the self-cleavage was 0. Work on A15U A18G U43C yielded a self-cleavage of 0.41. With A15U A18G U43C A64G the self-cleavage was 0.18. A15U A18G U43G G70A showed a self-cleavage of 0.24. For A15U A18G U49C A56G U76A A77G, the self-cleavage was 0.21. In the case of A15U A18G U54C G61C U72C, the self-cleavage is reported as 0.18. For A15U A18G U54C U67C, the self-cleavage was 0.1. In the case of A15U A18G U58A U72C, the self-cleavage is reported as 0.19. For A15U A18G U58C A64G, the self-cleavage was 0.14. For A15U A18G U69C U74C, the self-cleavage was 1.03. With A15U A18U A47G U78C the self-cleavage was 0.1. Work on A15U A18U A64U U67A yielded a self-cleavage of 0.16. Variant A15U A18U G33A U58C U67C U76C has a self-cleavage of 0.04. For A15U A18U G33U C38U U54C, the self-cleavage was 0.17. In the case of A15U A18U U26A C44A U51A A64G U78G, the self-cleavage is reported as 0. Work on A15U A18U U26C A65G U67C yielded a self-cleavage of 0.08. Work on A15U A18U U31A A56G A64G yielded a self-cleavage of 0.12. Work on A15U A18U U31G A64G A77U U80C yielded a self-cleavage of 0.16. For A15U A18U U41C, the self-cleavage was 0.24. A15U A18U U43C A64G gave a self-cleavage of 0.18. In the case of A15U A18U U51A U76C, the self-cleavage is reported as 0.23. In the case of A15U A18U U54C C71A U74A A75U, the self-cleavage is reported as 0.09. A15U A18U U80A gave a self-cleavage of 0.29. In the case of A15U A20G A21G, the self-cleavage is reported as 0.07. With A15U A20G A28G U43C U51C U72A U78C the self-cleavage was 0.1. A15U A20G A35G U60C gave a self-cleavage of 0.44. A15U A20G A35U A45G U72G gave a self-cleavage of 0.08. With A15U A20G A35U U69C A75C the self-cleavage was 0.14. For A15U A20G A65U U67C U72C, the self-cleavage was 0.15. With A15U A20G C23U C32U U51C G70A U72A the self-cleavage was 0.08. A15U A20G C29A A45U U74C gave a self-cleavage of 0.17. Work on A15U A20G C29G yielded a self-cleavage of 0.45. With A15U A20G C34A A77G the self-cleavage was 0.03. A15U A20G G22U U43C U74A gave a self-cleavage of 0.19. A15U A20G G24A A28G U31C U41C showed a self-cleavage of 0.05. A15U A20G G73U gave a self-cleavage of 1.11. A15U A20G U25C U54C U74A gave a self-cleavage of 0.08. In the case of A15U A20G U51A A64G, the self-cleavage is reported as 0.15. Work on A15U A20G U67A U76C yielded a self-cleavage of 0.23. With A15U A20U A35U U43C U51A U60A the self-cleavage was 0.1. For A15U A20U A45G A56G A57U, the self-cleavage was 0.06. In the case of A15U A20U A45G U72C A77G, the self-cleavage is reported as 0.2. Variant A15U A20U A64G U67G has a self-cleavage of 0.12. With A15U A20U U25A U54A A64G the self-cleavage was 0.22. With A15U A20U U25C A28G U54A the self-cleavage was 0.17. Work on A15U A20U U26C C40A U41C U58C A75G yielded a self-cleavage of 0.04. In the case of A15U A20U U41C U43G, the self-cleavage is reported as 0.33. A15U A20U U60C A64G U80A gave a self-cleavage of 0.09. For A15U A21C A56G G61A C71U U72C, the self-cleavage was 0.06. A15U A21G A28U A35U A45C G46A U72A gave a self-cleavage of 0.05. Variant A15U A21G A35C U43C U48C C59A A75G has a self-cleavage of 0.11. Work on A15U A21G A35G U43C U54G U60C yielded a self-cleavage of 0.07. Variant A15U A21G A57U U69C C81U has a self-cleavage of 0.09. With A15U A21G C32U A47C U49C G55C U69A the self-cleavage was 0.07. In the case of A15U A21G C34U A35G U54C, the self-cleavage is reported as 0.16. Work on A15U A21G G22U G33C C44A G55C yielded a self-cleavage of 0.05. For A15U A21G G73A U78A, the self-cleavage was 0.87. A15U A21G U25C showed a self-cleavage of 0.1. A15U A21G U25C A64G gave a self-cleavage of 0.1. In the case of A15U A21G U25C U26A U51C U69A, the self-cleavage is reported as 0.18.
